Laboratory results published in the supplement of paper PMC10126150.
Values marked as one replicate rest on one cluster of the flow cell; about a third of the high ones do not repeat.

Test system: ATP
Test: switch fluorescence ratio, 500 uM ATP over buffer (Cy3 cluster intensity, sum of 5 cycles each) (fold (ratio)); higher = stronger signal-on switching upon ATP binding; sequences stand for … in TCGTCGGCAGCGTCAGATGTGTATAAGAGACAGTTTTTTTTTTTTTTTTTTTTTTTTT…TC
Settings: aptamer strand: ATP DNA aptamer (quencher-CACCTGGGGGAGTATTGCGGAGGAAGG + anchor), 100 nM annealed; ATP concentration: 500 uM; one replicate
Method in brief: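 For every switch-domain sequence, the fluorescence ratio is the mean of per-cluster values, each being summed target-cycle Cy3 intensity over summed buffer-cycle Cy3 intensity. Clusters outside 100-1000 RFU were excluded. On a modified Illumina MiSeq flow-cell, the Cy3-labelled switching-strand clusters were annealed to 100 nM quencher-labelled ATP aptamer, imaged in selection buffer and then after 15 min with 500 uM ATP at 22 °C. Five such cycles were run, with NaOH stripping and re-annealing between them.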
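Further: ATP exposure 15 min at 22 °C before imaging.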

| Sequence | switch fluorescence ratio |
| --- | --- |
| TTGTTGTACA | 0.989 |
| CCGTTGGGGA | 0.991 |
| TTGTGGACAG | 0.988 |
| GTACTGCGG | 0.991 |
| ATTCTTAACT | 1.1 |
| GAGGTGTCCT | 0.997 |
| CTTTTCTACG | 1.11 |
| GGAAGCAATG | 1.95 |
| CTAGACGTCT | 1.03 |
| CAGGCGGGCG | 0.993 |
| ACGTGTGCCT | 1.04 |
| AATGGTCAGC | 0.968 |
| CGGCGCAAAT | 4.92 |
| TTGAGCTGAC | 1.1 |
| CAGCCCTGCT | 0.979 |
| GGATATTATG | 1.04 |
| TCTCGTATTT | 1.05 |
| CCGGAATAGT | 4.39 |
| CTCGACCGTT | 0.985 |
| TACGGGTGAA | 1.06 |
| GAGCAAGCT | 1.35 |
| GAATCATAT | 1.02 |
| GGGAAGTGCT | 0.884 |
| TGCTATCTTA | 0.991 |
| CAAAGAGCG | 0.991 |
| TGTTGACTTG | 1.04 |

| Sequence | switch fluorescence ratio |
| --- | --- |
| AACTGTATCA | 1.07 |
| ACCAGGTACG | 1.12 |
| GTCGCTTAGC | 1.08 |
| AACTATTTT | 1.02 |
| TCAGGGCGGT | 0.919 |
| TAGATCATAC | 1.03 |
| AACGCCCACA | 1.27 |
| AGTGATC | 0.982 |
| GCCTTGTCGC | 0.987 |
| TACTGCTACC | 1.4 |
| TAGGCTGAGT | 0.947 |
| GGGGCATTGC | 1.07 |
| GCTTCCCTTA | 1.06 |
| CGTGGCACGG | 0.988 |
| AGTTCGGGTA | 1.02 |
| TAGGTTAGGG | 0.993 |
| AATATCCCAA | 1.03 |
| ACTTGGTTGA | 1.03 |
| ATAACGGAAC | 1.18 |
| TATGTAAGTT | 1 |
| TAAACACGTC | 0.929 |
| AAGAGCCTTT | 1 |
| AAAATTCGG | 1.01 |
| AAATATATTT | 1.03 |
| TTGTTATAAA | 0.994 |
| GGGGTTGG | 1.01 |

| Sequence | switch fluorescence ratio |
| --- | --- |
| ATAGGTATC | 0.984 |
| ATCCTCATAT | 1.01 |
| TATGGGGTGA | 0.971 |
| TATGTCGCTG | 1.01 |
| TGCGTACCTG | 1.02 |
| AGTGCCCCCT | 1.02 |
| CGAATCGTC | 1.02 |
| AGAGCGTATG | 1.01 |
| GTCCCTATGT | 1.03 |
| AGGGGATCGA | 1 |
| CCTAGACGGC | 0.999 |
| TAAATCTAGT | 1.07 |
| TTCTTACTCT | 1.05 |
| CCGGTAACAA | 2.29 |
| AAGACTCGAA | 1.07 |
| TGCGAGTGGG | 0.999 |
| TTGTCAGCAT | 1.67 |
| AGGAATTCAG | 0.972 |
| TTGTTGTCCA | 0.991 |
| ACCAAGTGCT | 1.09 |
| TCATTACCAA | 0.988 |
| TACGATCCTT | 1.02 |
| CAAATTTATG | 0.949 |
| GTTAAAACGT | 1.02 |
| CTCGGAGATA | 1.04 |
| TATCGGTGTC | 1.07 |

| Sequence | switch fluorescence ratio |
| --- | --- |
| TCTGGCCCTT | 1.02 |
| AATCTTGTTC | 1.02 |
| TATGCCACTA | 1.02 |
| TTACTGGTGG | 0.978 |
| ATCGTTGTTC | 1.01 |
| GTAAGCGTAC | 1.66 |
| AGAGCTTGTG | 0.97 |
| GGGCGGTGTT | 0.969 |
| GACGTGTCCA | 1.02 |
| CCAATTAAG | 1.01 |
| GAGCGGTCGG | 0.962 |
| GTGTGGAGCG | 0.994 |
| AAGGTGATGT | 1 |
| AATTTTCAGC | 1.11 |
| TGACTTACGA | 1.45 |
| GGACTTACTT | 1.22 |
| AAAGCGAGGG | 1.04 |
| CACTGTCTTT | 1.01 |
| AGCGTGGGGC | 1.05 |
| AAAACCGTAC | 1.76 |
| ACGCGTCACC | 0.956 |
| GCCTGCCGTG | 1.02 |
| CATATGAAGA | 1.05 |
| TGGTAGAACG | 0.985 |
| CGAGAAGCGG | 1.02 |
| AGCATAACAG | 1.05 |

| Sequence | switch fluorescence ratio |
| --- | --- |
| TCTGAGTTAG | 0.969 |
| TTGACTTAAT | 1.05 |
| AGGCTCAGCC | 0.962 |
| GCGTACAATG | 1 |
| CTGACAGG | 1.37 |
| CTGACTGTT | 1 |
| CGTCTACTAT | 0.995 |
| AATTTCAAAC | 1.01 |
| CAGTAGACAG | 1.01 |
| TGGAATTTGA | 0.996 |
| ACTCAGATCT | 1.07 |
| ACGGATTCTG | 0.919 |
| ACCGAGCTC | 1.24 |
| AAGTATGAA | 0.992 |
| TAACTGAATG | 1.02 |
| ACCATATCTT | 1.07 |
| AACCCGACAG | 1.08 |
| TCATTAAAA | 0.98 |
| AATTTAGG | 1.01 |
| TTCATTATG | 1.06 |
| CCCCATGTTA | 1.05 |
| CCGTTTTGCT | 0.979 |
| TTCTGTAAAG | 0.994 |
| CAGGTTGCCG | 0.994 |
| AATTCAGTGG | 0.946 |
| ATATCTCCTT | 1.04 |

| Sequence | switch fluorescence ratio |
| --- | --- |
| ATGCACCGGC | 1.11 |
| TAATTACCAA | 1.04 |
| TGGGGCCACT | 0.982 |
| AATTTGAGAC | 1.04 |
| GCGTCTTGGA | 0.992 |
| CATTGTTTGT | 1.01 |
| GGCAATTCTG | 1.02 |
| TCCTAGGGAC | 1.09 |
| TGTATCCATT | 0.998 |
| CGATATGCAA | 1.65 |
| ATGCACAACA | 1.06 |
| GAATGCTGCG | 0.935 |
| GCCTTAATGG | 0.96 |
| GGGATGGAGC | 0.964 |
| GGATATCGTC | 1.01 |
| CTTTGGGGAA | 1.04 |
| GACTAGGGGC | 0.99 |
| GAAAATTTCT | 1 |
| AGAAGGCAGA | 1.01 |
| TAGTGGCGGC | 0.998 |
| GTTTGAGAG | 1.04 |
| GATTTAACCC | 1 |
| TTAAAAGCTC | 0.974 |
| TACGCAGCCC | 2.07 |
| TTTAAGATCG | 1.03 |
| TTAGTCAGTG | 1.03 |

| Sequence | switch fluorescence ratio |
| --- | --- |
| TTGTGGGCGT | 0.998 |
| ATCTCCGATT | 1.04 |
| GGACTCCGGT | 1.04 |
| CGGGACATTA | 0.987 |
| AACAGCCCTA | 0.987 |
| TATCTGCGCA | 1.11 |
| TCGAATGTTG | 1 |
| AGCTGCGACA | 1.02 |
| CGTGCACCT | 1.05 |
| ACCAAGCATA | 1.34 |
| GACCGGATGA | 1.05 |
| ATGAATCGCT | 1.02 |
| ACCCCCAGCT | 2.15 |
| CATTCTCGG | 0.955 |
| AGACAGAACT | 1.05 |
| CGACTCTAGA | 1.07 |
| GCCGTGAGAC | 2.12 |
| TATTATGTAG | 0.974 |
| CTTGTAGTTT | 0.973 |
| ATAACGAAGG | 1.05 |
| TGGCAGAAAC | 1.02 |
| TTGGCGGTTG | 0.973 |
| GGGGCACGAA | 0.971 |
| ACTAATTCTT | 1.01 |
| AAAGTGCGTC | 0.991 |
| TCATCAAAAG | 1.05 |

| Sequence | switch fluorescence ratio |
| --- | --- |
| GAGTACTGTG | 0.951 |
| AGACTGTGAT | 1.04 |
| ACGAAAATAA | 1.03 |
| GTTGGCTAGG | 1.07 |
| TCATCGGCGG | 0.976 |
| GAGGAAAG | 1.04 |
| AGGAACCGGT | 1.04 |
| CAGATCTGTG | 0.976 |
| ATTTAATCAA | 0.998 |
| GGGTAATGCT | 0.946 |
| CCTCTTTTGT | 1 |
| CCCAAAGTGT | 1.1 |
| CACGTTTTCA | 1.15 |
| GAGGGTCGCA | 0.997 |
| GGCGGGTTAT | 1.24 |
| TTAGCTCAAC | 0.995 |
| TAAGAAAGA | 1.02 |
| CGCGTACTCA | 2.33 |
| CAATAATCAG | 1.01 |
